Test results taken from the supplement of paper PMC3334620.
Over roughly 33,000 sequences, “E-score (-0.5 to 0.5)” has its median near -0.043; the highest 2% begin near 0.37. The list shows a part of the results.

The sequences below were run against T1, Upc2 (UniProt Q12151) (assay: PBM E-score (8-mer binding enrichment) (E-score (-0.5 to 0.5)); higher = stronger / more preferred TF binding; most listed sequences are background and not binding sites). Settings: protein concentration: 200 nM; construct: GST-full length.
T1 sequence: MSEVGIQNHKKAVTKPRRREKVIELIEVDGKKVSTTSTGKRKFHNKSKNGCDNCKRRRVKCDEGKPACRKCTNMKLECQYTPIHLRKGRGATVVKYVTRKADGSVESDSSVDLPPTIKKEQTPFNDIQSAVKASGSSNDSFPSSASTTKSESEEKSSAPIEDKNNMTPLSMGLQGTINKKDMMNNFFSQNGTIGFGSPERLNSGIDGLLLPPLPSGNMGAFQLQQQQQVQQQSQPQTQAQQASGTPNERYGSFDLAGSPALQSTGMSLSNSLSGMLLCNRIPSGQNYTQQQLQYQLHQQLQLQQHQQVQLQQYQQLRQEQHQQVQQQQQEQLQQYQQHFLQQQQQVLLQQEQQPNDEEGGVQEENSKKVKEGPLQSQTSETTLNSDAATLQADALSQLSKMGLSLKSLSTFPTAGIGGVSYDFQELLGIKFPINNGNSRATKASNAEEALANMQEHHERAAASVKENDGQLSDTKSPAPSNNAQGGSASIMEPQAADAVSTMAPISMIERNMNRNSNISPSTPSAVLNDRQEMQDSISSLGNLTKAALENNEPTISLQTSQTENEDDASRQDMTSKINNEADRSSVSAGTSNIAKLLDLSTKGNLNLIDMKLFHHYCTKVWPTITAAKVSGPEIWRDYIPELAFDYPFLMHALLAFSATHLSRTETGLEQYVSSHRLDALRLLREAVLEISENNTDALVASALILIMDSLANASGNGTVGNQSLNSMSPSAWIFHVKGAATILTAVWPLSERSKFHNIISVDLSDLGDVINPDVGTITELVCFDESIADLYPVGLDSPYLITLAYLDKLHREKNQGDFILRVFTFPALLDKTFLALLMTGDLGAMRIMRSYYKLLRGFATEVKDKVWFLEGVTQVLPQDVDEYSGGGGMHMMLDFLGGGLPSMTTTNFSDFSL
Method in brief: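 PURExpress in vitro transcription/translation supplied GST-tagged yeast transcription factors, either full-length or DNA-binding domain. Applied at about 100-200 nM to universal all-10-mer Agilent arrays double-stranded by primer extension, the bound protein was detected with fluorescent anti-GST. E-scores, modified Wilcoxon-Mann-Whitney statistics, were given by the Universal PBM Analysis Suite to ungapped eight-base words pooled with their reverse complements after masliner normalisation.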

Row | Sequence | PBM E-score
1 | AATTTAGC | 0.0533
2 | CACTACAA | 0.152
3 | ACGCGACG | 0.265
4 | AAAGTTCT | -0.0524
5 | ACGGCGAT | 0.316
6 | ACATAAGT | -0.141
7 | GATTAAGC | 0.012
8 | AAACTTCA | 0.156
9 | CTCCCCGA | -0.0281
10 | CAAATCTG | -0.272
11 | CAGTGTAC | 0.184
12 | TAACAATA | 0.103
13 | AATCAATG | 0.0849
14 | GGTGCTAA | -0.00472
15 | GTGTGAGA | -0.0873
16 | AATCTACG | 0.0794
17 | CACAACTA | 0.0858
18 | ATGGTTGA | -0.284
19 | ACGGCCAC | 0.0967
20 | CGCGTGGC | -0.0684
21 | AATTCAGG | 0.00127
22 | CTCACAAA | -0.182

Row | Sequence | PBM E-score
23 | GAGAGAAC | -0.133
24 | ACTGGAAT | -0.283
25 | CGCAGGGC | 0.0356
26 | AATGTTAG | -0.0657
27 | GCTCCTGA | -0.101
28 | CACAAGCG | 0.0708
29 | CGGTTGCC | -0.0446
30 | CGGAATAG | -0.0866
31 | TATCTTCA | 0.0238
32 | CGTAACGA | 0.374
33 | CGTTCGCA | 0.274
34 | CCGGGTAG | -0.0707
35 | ACTGCGGC | 0.0227
36 | CGCACCCC | -0.136
37 | TTAGCCAA | -0.155
38 | TAACAGAA | -0.0236
39 | TAAGTGTA | 0.201
40 | GCTGGGAA | -0.00216
41 | ATCTCTCA | -0.156
42 | TAAGGATA | -0.111
43 | ATTATTCA | -0.112
44 | CCTTTATC | -0.132

Row | Sequence | PBM E-score
45 | CTCCCAGC | -0.242
46 | AGACTACG | -0.0435
47 | GAGGCTCA | -0.195
48 | GCATACAC | 0.0673
49 | AAATATAG | 0.0319
50 | CATTTTGA | -0.118
51 | CGACCCCG | -0.14
52 | CGCTTAAA | 0.28
53 | AGCGACAC | 0.166
54 | AACTGTCG | 0.125
55 | AATCCTCC | -0.143
56 | ACGGCTGA | 0.139
57 | CCTTCTTC | -0.159
58 | CGGTGATC | -0.152
59 | TGAACGCA | 0.189
60 | AATCTTCG | 0.162
61 | AGCCGACA | -0.152
62 | CTATCTCC | -0.197
63 | AAGCGATG | 0.173
64 | GGAGATTA | -0.182
65 | GAAAACAA | -0.00381
66 | TGGGCCAA | -0.162

Row | Sequence | PBM E-score
67 | CAGGTGGG | -0.138
68 | CAAGATAC | 0.0716
69 | ATAAGCAT | -0.00636
70 | ATGTATAA | 0.0845
71 | ATGGAAGA | -0.3
72 | AATCCCAC | -0.122
73 | GCTCCAGA | -0.127
74 | CCCCAGCC | -0.0305
75 | CGTCGCCC | -0.104
76 | ATGTGGGC | -0.107
77 | CATTACGC | 0.023
78 | ACGGACGG | 0.105
79 | CGATAGGA | 0.00018
80 | CACAGCTA | -0.106
81 | GCCATGCC | -0.216
82 | GCATTGGA | -0.214
83 | GAAGGGTA | -0.103
84 | ATACTAAT | 0.0186
85 | GTGGGTTA | -0.0799
86 | CATAATAC | 0.141
